{"source": "PubChem BioAssay AID924", "about": "(National Center for Advancing Translational Sciences (NCATS), 2007)", "note": "Several values for one entry are separate records, joined by “and”; a condition that tells them apart may be missing. Equal values may be shown once. Hit rate of the full screen: of about 130,000 compounds, about 1,200 (0.92%) were called active. This list was built around the results that the source calls inconclusive (neither active nor inactive); the mix of calls is not that of the screen. The call rests on the fitted dose curve; in most records, active means well fitted cell-killing curve with a large enough effect; inconclusive means small, poorly fitted or top-dose-only effect; inactive means no such curve, though single readings can be large or run the other way. Potencies of inconclusive entries are doubtful fits and often do not repeat. A structure can be active in one record and inactive in another. Potency means the concentration at half of the fitted maximal effect; tags describe the fitted curve by direction and shape.", "data": [{"assay": "qHTS Screen for Compounds that Selectively Target Cancer Cells with p53 Mutations: Cytotoxicity of p53ts Cells at the Permissive Temperature; further: nearly all actives have a fitted effect of over 55% in size;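 on activity change, negative = cytotoxicity: 0% = DMSO and -100% = full killing by reference compound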", "details": "H1299-p53A138V at 32C, ATP luminescence viability, 24 h; activity change, negative = cytotoxicity: at 46.1 µM (top of the series)", "method_in_brief": "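Cells: H1299 p53ts (A138V), 600/well, pre-incubated 16–30 h at 37C. Cpd up to 46 uM, 24 h, 32C. Readout: ATPlite luminescence, 20 min RT. Normalization: DMSO vs tamoxifen 100 uM. AC50 by Hill equation.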", "values": [{"smiles": "Cc1ccc(NC(=O)C(=O)NCC(c2cccnc2)N2CCN(Cc3ccccc3)CC2)cc1", "note": "(configuration not stated)", "Potency": "inactive"}, {"smiles": "Cc1cccn2c(=O)c3cc(C(=O)N(Cc4ccccc4)C(C)C)sc3nc12", "Potency": "inconclusive: 31.6 µM [cytotoxic, single point]"}, {"smiles": "CCOc1ccc(C2C(C(=O)Nc3ccc(Cl)cc3)=C(C)Nc3nc(C(F)(F)F)nn32)cc1", "note": "(configuration not stated)", "Potency": "inconclusive: 31.6 µM [cytotoxic, single point]"}, {"smiles": "Cc1ccccc1CSc1nc2cccnc2n1Cc1ccc(C(=O)NC2CC2)cc1", "Potency": "inconclusive: 11.2 µM [cytotoxic, partial curve]"}, {"smiles": "CCOC(=O)c1ccccc1NC(=O)CSc1cn(CC(=O)N2CCOCC2)c2ccccc12", "Potency": "inactive"}, {"smiles": "O=C(Cn1ncc2c3ccccc3n(Cc3ccccc3F)c2c1=O)N1CCCCC1", "Potency": "inactive"}, {"smiles": "CC(=O)NCCNc1ncncc1-c1ccccc1C", "Potency": "inactive"}, {"smiles": "CCOC(=O)c1ccc(N2C(=O)c3n[nH]c(-c4ccco4)c3C2c2ccc(F)cc2)cc1", "note": "(configuration not stated)", "Potency": "inconclusive: 31.6 µM [cytotoxic, single point]"}, {"smiles": "Cc1cc2nc(-c3cccc(NC(=O)COc4ccc(Cl)c(C)c4)c3)oc2cc1C", "Potency": "inconclusive: 7.94 µM [cytotoxic, partial curve]"}, {"smiles": "Nc1nc(Nc2ccccc2)nc2ccccc12", "Potency": "active: 3.98 µM"}, {"smiles": "O=C(Nc1ccccc1C(F)(F)F)c1cc2ccccn2n1", "Potency": "active: 10 µM"}, {"smiles": "CCOc1cc(CNCCSc2nnnn2-c2ccccc2)ccc1OC", "Potency": "inconclusive: 3.55 µM [cytotoxic, full curve, poor fit]"}, {"smiles": "O=C(O)c1cc(-c2ccc3c(c2)OCO3)nc2ccccc12", "Potency": "inconclusive: 10 µM [cytotoxic, partial curve]"}, {"smiles": "O=C(Nc1ccc2oc(-c3cccc(Cl)c3Cl)nc2c1)c1cccc(Br)c1", "Potency": "inconclusive: 15.8 µM [cytotoxic, single point]"}, {"smiles": "COc1ccc2c(Cl)c(-c3nnc4n3CCCCC4)sc2c1", "Potency": "inactive"}, {"smiles": "O=C(CCN1CCC(c2ccccc2)C1)c1cccs1", "note": "(configuration not stated)", "Potency": "inactive"}, {"smiles": "Cc1ccc(CNC(=O)C(=O)NCC(c2cccnc2)N2CCN(c3ccccc3F)CC2)cc1", "note": "(configuration not stated)", "Potency": "inconclusive: 15.8 µM [cytotoxic, single point]"}, {"smiles": "Cc1cccc(-c2cc(=O)c3cc(Br)ccc3o2)c1", "Potency": "inconclusive: 25.1 µM [cytotoxic, partial curve]"}, {"smiles": "Cc1ccc(-c2noc(-c3ccccc3C(=O)NCC3CCCO3)n2)cc1", "note": "(configuration not stated)", "Potency": "inconclusive: 10 µM [cytotoxic, partial curve]"}, {"smiles": "Cc1ccc(O)c(NC(=O)CCS(=O)(=O)c2nc(-c3ccc4c(c3)OCO4)cc(C(F)(F)F)n2)c1", "Potency": "inconclusive: 25.1 µM [cytotoxic, single point]"}, {"smiles": "CC(=NC1CCCCC1)C1=C(O)c2ccccc2C1=O", "Potency": "inconclusive: 12.6 µM [cytotoxic, partial curve]"}, {"smiles": "CCCCC/C=C\\C/C=C\\CCCCCCCC(=O)O", "activity change, negative = cytotoxicity": "inactive: 9.45% [at 1.84 µM]"}, {"smiles": "O=C(CSc1nnc2ccccn12)c1ccc2c(c1)OCCO2", "Potency": "inconclusive: 31.6 µM [cytotoxic, single point]"}, {"smiles": "Cc1cccc(-n2ncc3c(N4CCCCCC4)ncnc32)c1", "Potency": "inconclusive: 2.24 µM [cytotoxic, full curve]"}, {"smiles": "O=C(CCn1c(=O)sc2ccccc21)Nc1nccs1", "Potency": "inconclusive: 12.6 µM [cytotoxic, single point]"}, {"smiles": "Cc1cc2ccccc2n1CCNC(=O)C(C)(C)C", "Potency": "inconclusive: 15.8 µM [cytotoxic, single point]"}, {"smiles": "O=S(=O)(CCOc1ccccc1)c1nc2ccccc2[nH]1", "Potency": "inconclusive: 25.1 µM [cytotoxic, single point]"}, {"smiles": "NCCc1ccc(O)c(O)c1", "Potency": "inactive and active: 12.6 µM"}, {"smiles": "CC(C)(C)c1ccc(S(=O)(=O)N2CCN(CCC#N)CC2)cc1", "Potency": "inactive"}, {"smiles": "Cc1nc(NC2CCCCC2)c2nc(-c3ccccc3)n(CCN3CCCCC3)c2n1", "Potency": "inconclusive: 31.6 µM [cytotoxic, single point]"}, {"smiles": "C[C@H](Cc1ccc(O)c(O)c1)[C@@H](C)Cc1ccc(O)c(O)c1", "Potency": "inconclusive: 25.1 µM [cytotoxic, single point]"}, {"smiles": "COc1ccc(CNc2nc(-c3ccco3)nn2C(=O)c2ccccc2Cl)cc1", "Potency": "inconclusive: 14.1 µM [cytotoxic, single point]"}, {"smiles": "COc1cccc(NC(=O)C2CCCN(c3nnc(-n4c(C)ccc4C)s3)C2)c1", "note": "(configuration not stated)", "Potency": "inactive"}, {"smiles": "CCc1nnc(SCC(=O)N2CCCc3ccccc32)nc1CC", "Potency": "inactive"}, {"smiles": "COC(=O)CS(=O)(=O)c1nc2ccccc2nc1N1CCCCC1", "Potency": "inconclusive: 31.6 µM [cytotoxic, single point]"}, {"smiles": "CCOc1ccc(CNC(=O)CCS(=O)(=O)c2cc3c(cc2Cl)NC(=O)CO3)cc1OC", "Potency": "inactive"}, {"smiles": "COc1cc(C(=O)Nc2ccc(S(=O)(=O)N3CCCCC3C)cc2)cc(OC)c1OC", "note": "(configuration not stated)", "Potency": "inactive"}, {"smiles": "COc1ccc(-c2[nH]nc3nc(-c4cc(OC)c(OC)c(OC)c4)cc(C(=O)O)c23)cc1", "Potency": "inactive"}, {"smiles": "Cn1cccc1Cc1nnc(SCC(=O)N2CCc3ccccc32)n1CCc1ccccc1", "Potency": "inconclusive: 31.6 µM [cytotoxic, single point]"}, {"smiles": "Cc1c(NC(=O)C(C)(C)C)cccc1-c1nc2ccccc2s1", "Potency": "active: 12.6 µM"}, {"smiles": "COc1ccc2c(c1OC)C(=O)N(c1ccccn1)C2", "Potency": "inconclusive: 15.8 µM [cytotoxic, partial curve]"}, {"smiles": "COc1cccc(CNC(=O)c2cc3cc(C)ccc3n2C)c1", "Potency": "inconclusive: 0.631 µM [cytotoxic, full curve]"}, {"smiles": "CCCCC(CC)CNC(=O)c1ccc(Cn2c(=O)[nH]c3cc(OC)c(OC)cc3c2=O)cc1", "note": "(configuration not stated)", "Potency": "inconclusive: 15.8 µM [cytotoxic, single point]"}, {"smiles": "COc1ccc(-c2nn(C)c3sc(C(=O)Nc4cc(OC)c(OC)c(OC)c4)cc23)cc1OC", "Potency": "inconclusive: 20 µM [cytotoxic, single point]"}, {"smiles": "CCc1ccc(N2CC(C)Cn3c2nc2c3c(=O)n(CC(=O)O)c(=O)n2C)cc1", "note": "(configuration not stated)", "Potency": "inactive"}, {"smiles": "CCOC(=O)CN(Cc1ccccc1)C(C(=O)NC1CCCCC1)c1ccccc1", "note": "(configuration not stated)", "Potency": "inactive"}, {"smiles": "CCN(CC)S(=O)(=O)c1ccc2oc(C(=O)N3CCOCC3)c(C)c2c1", "Potency": "inconclusive: 0.316 µM [cytotoxic, full curve, poor fit]"}, {"smiles": "O=C(NC1=NCCS1)c1cc2ccccc2o1", "Potency": "active: 5.01 µM"}, {"smiles": "O=C1C(c2ccncc2)=C(O)c2ccccc21", "Potency": "active: 3.16 µM"}, {"smiles": "O=C(Nc1noc2ccccc12)c1ccc(F)cc1", "Potency": "active: 10 µM"}, {"smiles": "Cn1c(=O)c2cc(NC(=O)c3ccccc3Cl)c(=O)oc2n(C)c1=O", "Potency": "inactive"}, {"smiles": "COc1ccc2nc(NC(=O)c3ccc(Br)s3)sc2c1", "Potency": "inconclusive: 10 µM [cytotoxic, partial curve]"}, {"smiles": "CSc1ncnc2c1ncn2[C@@H]1O[C@@H](CO)[C@H](O)O[C@@H]1O", "Potency": "inconclusive: 3.98 µM [cytotoxic, partial curve]"}, {"smiles": "O=C(Nc1ccc2nc3n(c(=O)c2c1)CCCCC3)c1ccccn1", "Potency": "inconclusive: 12.6 µM [cytotoxic, partial curve]"}, {"smiles": "Cc1oc(-c2cccc(Cl)c2)nc1CN1CCCC(C(=O)N2CCN(c3ccc(F)cc3)CC2)C1", "note": "(configuration not stated)", "Potency": "inconclusive: 25.1 µM [cytotoxic, single point]"}, {"smiles": "O=C(c1cc(-c2ccc3c(c2)OCO3)on1)N1CCN(c2ccccc2)CC1", "Potency": "inconclusive: 31.6 µM [cytotoxic, single point]"}, {"smiles": "CS(=O)(=O)N1CCN(C(=O)c2ccccc2F)CC1", "Potency": "inconclusive: 31.6 µM [cytotoxic, single point]"}, {"smiles": "O=C1NC(c2cccs2)Nc2sc3c(c21)CCCC3", "note": "(configuration not stated)", "Potency": "inconclusive: 20 µM [cytotoxic, single point]"}, {"smiles": "COc1ccccc1-c1nccc(NCc2cccs2)n1", "Potency": "inactive"}, {"smiles": "CCN1CCN(CCCNC(=O)c2cc3c(s2)-c2c(C)cccc2OC3)CC1", "Potency": "inconclusive: 25.1 µM [cytotoxic, single point]"}, {"smiles": "CCOC(=O)c1sc(NC(=O)c2ccc(Br)o2)cc1C", "Potency": "inconclusive: 5.01 µM [cytotoxic, partial curve]"}, {"smiles": "COc1cc(C2c3c(oc4ccccc4c3=O)C(=O)N2Cc2ccccc2Cl)ccc1O", "note": "(configuration not stated)", "Potency": "inconclusive: 25.1 µM [cytotoxic, single point]"}, {"smiles": "O=C(Cc1ccccc1)N(c1ccc(F)cc1)C1C=CS(=O)(=O)C1", "note": "(configuration not stated)", "Potency": "inconclusive: 0.501 µM [cytotoxic, partial curve, poor fit]"}, {"smiles": "COc1ccccc1C1C=C(c2ccccc2)Nc2nnnn21", "note": "(configuration not stated)", "Potency": "inconclusive: 35.5 µM [cytotoxic, single point]"}, {"smiles": "O=C(Nc1ccc(Cl)cc1)c1ccc2c(c1)OCO2", "Potency": "inconclusive: 15.8 µM [cytotoxic, partial curve]"}, {"smiles": "CC1CCCN(CC(=O)Nc2ccc(S(=O)(=O)N3CCCCCC3)cc2)C1", "note": "(configuration not stated)", "Potency": "inactive"}, {"smiles": "O=C(O)Cc1sc(Nc2ccccc2Cl)nc1-c1ccccc1", "Potency": "inconclusive: 12.6 µM [cytotoxic, partial curve]"}, {"smiles": "O=C(COc1ccc(F)cc1)Nc1ccccc1C(=O)OCc1cc(=O)n2nc(C3CC3)sc2n1", "Potency": "inactive"}, {"smiles": "COc1ccccc1CNc1nc(-c2ccc(N(C)C)cc2)nc2ccccc12", "Potency": "inconclusive: 25.1 µM [cytotoxic, single point]"}, {"smiles": "COc1cccc(O)c1O", "Potency": "active: 5.01 µM"}, {"smiles": "Cc1ccc(SCC(=O)N2CCOCC2)cc1", "Potency": "inconclusive: 0.631 µM [cytotoxic, full curve, poor fit]"}, {"smiles": "COc1cccc(Cn2c(=O)n(-c3ccccc3C)c(=O)c3c2c2cc(C)ccc2n3C)c1", "Potency": "inconclusive: 3.16 µM [cytotoxic, full curve]"}]}]}
